Measurements: PubChem BioAssay AID504332 (National Center for Advancing Translational Sciences (NCATS), 2011)
Hit rate of the full screen: of about 350,000 compounds, about 31,000 (8.9%) were called active. The inconclusive results got no clear call from the source; some entries with a clear call stand among them for comparison. Calls come from the whole dose curve; as a rule, active = well fitted inhibition curve with a large enough effect; inconclusive = small, poorly fitted or top-dose-only effect; inactive = no such curve, though single readings can be large or run the other way. A potency beside an inconclusive call is a rough fit, not a confirmed value.
% is set by controls: 0 for no effect and ±100 for the full control effect; potency is the fitted concentration of half-maximal effect; tags give direction and shape of the fitted curve.
Note: nearly all actives have a fitted effect of over 75% in size.

These compounds were tested against Histone-lysine N-methyltransferase EHMT2 (Homo sapiens) (UniProt Q96KQ7) (assay: qHTS Assay for Inhibitors of Histone Lysine Methyltransferase G9a). Settings: G9a H3K9 monomethylation, AlphaScreen, 2 h; activity, negative = inhibition: at 59 µM (top of the series) unless noted.
Chain of UniProt Q96KQ7 (Q96KQ7 whole entry, looked up): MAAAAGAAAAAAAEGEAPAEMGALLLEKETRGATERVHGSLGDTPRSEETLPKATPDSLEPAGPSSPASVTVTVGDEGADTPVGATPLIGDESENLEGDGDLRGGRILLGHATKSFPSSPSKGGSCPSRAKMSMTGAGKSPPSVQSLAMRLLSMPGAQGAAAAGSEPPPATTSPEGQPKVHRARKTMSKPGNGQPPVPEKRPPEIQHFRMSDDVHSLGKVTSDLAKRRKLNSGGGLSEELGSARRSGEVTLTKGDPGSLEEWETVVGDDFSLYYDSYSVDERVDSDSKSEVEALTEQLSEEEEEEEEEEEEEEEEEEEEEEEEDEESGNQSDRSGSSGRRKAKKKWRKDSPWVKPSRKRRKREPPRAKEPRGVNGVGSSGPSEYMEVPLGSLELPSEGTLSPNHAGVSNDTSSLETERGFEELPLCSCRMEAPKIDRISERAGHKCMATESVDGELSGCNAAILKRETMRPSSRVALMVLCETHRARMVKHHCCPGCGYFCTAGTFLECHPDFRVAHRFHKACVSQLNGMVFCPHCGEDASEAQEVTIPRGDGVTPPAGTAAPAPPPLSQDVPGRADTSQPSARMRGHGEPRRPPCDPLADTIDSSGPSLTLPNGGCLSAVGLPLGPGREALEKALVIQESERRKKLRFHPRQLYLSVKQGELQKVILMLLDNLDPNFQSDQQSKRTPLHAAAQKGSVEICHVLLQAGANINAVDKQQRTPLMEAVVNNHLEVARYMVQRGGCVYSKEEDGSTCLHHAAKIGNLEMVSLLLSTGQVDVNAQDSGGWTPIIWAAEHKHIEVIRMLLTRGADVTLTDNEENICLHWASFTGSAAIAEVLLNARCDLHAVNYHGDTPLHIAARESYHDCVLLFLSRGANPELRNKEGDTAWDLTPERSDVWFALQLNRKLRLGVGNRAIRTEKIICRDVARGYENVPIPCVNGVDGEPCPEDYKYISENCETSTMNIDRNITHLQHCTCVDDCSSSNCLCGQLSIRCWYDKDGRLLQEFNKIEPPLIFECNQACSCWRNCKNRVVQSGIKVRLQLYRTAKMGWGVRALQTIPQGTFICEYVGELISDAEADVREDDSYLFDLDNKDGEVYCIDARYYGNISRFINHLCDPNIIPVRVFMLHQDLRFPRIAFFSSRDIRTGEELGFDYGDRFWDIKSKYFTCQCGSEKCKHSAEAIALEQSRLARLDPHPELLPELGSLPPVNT
In short: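 Signal arises when biotinylated H3K9 peptide, once monomethylated, bridges streptavidin donor and antibody-captured acceptor beads. Enzyme at 20 nM was preincubated 15 min with test compounds; peptide 500 nM and SAM 20 uM then reacted for 2 h.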
With `C[C@@H]1C=C(C(=O)N2CCN(Cc3ccc4c(c3)OCO4)CC2)O[C@H](OCCCCO)C1` the activity, negative = inhibition was inconclusive: -75.1% [inhibitor]. For `O=C(NCc1ccco1)C(c1cccs1)N(C(=O)C1COc2ccccc2O1)c1cccc(O)c1` (stereo unspecified), the Potency was inconclusive: 50.1 µM [inhibitor, partial curve, poor fit]. `CN(C)Cc1nc2ccccc2c(=O)n1Cc1nc(-c2cccc([N+](=O)[O-])c2)cs1` was tested, and the Potency was inconclusive: 11.2 µM [inhibitor, partial curve, poor fit]. `COc1ccc(C(CC(=O)NCc2ccco2)c2ccc(F)cc2)cc1` (stereo unspecified) was tested, and the Potency was inconclusive: 39.8 µM [inhibitor, partial curve]. With `Cc1cc(C)nc(SCc2nnc(SCc3ccc([N+](=O)[O-])cc3)n2Cc2ccco2)n1` the Potency was inconclusive: 39.8 µM [inhibitor, single point]. In the case of `COc1ccc(N(C)S(=O)(=O)c2cccc(C(=O)NCC(c3ccco3)N3CCCC3)c2)cc1` (stereo unspecified), the activity, negative = inhibition is reported as inconclusive: -81.3% [inhibitor] [at 2.33 µM]. `O=C(Nc1ccc(Br)cc1)c1cccn1-c1ncc(C(F)(F)F)cc1Cl` was tested, and the Potency was inconclusive: 89.1 µM [inhibitor, single point]. `COc1ccccc1-c1n[nH]c(=S)n1N` was tested, and the Potency was active: 12.6 µM. In the case of `Cc1ccc(N(CC(=O)NC2CCCCC2)C(=O)CNC(=O)c2ccco2)cc1C`, the “activity, negative = inhibition” value is reported as inactive: 25.7% [at 102 µM]. In the case of `COC(=O)C1C(=O)N2CCCSC2=C(C#N)C1c1cccs1` (stereo unspecified), the Potency is reported as inconclusive: 5.62 µM [inhibitor, full curve, poor fit]. With `N#Cc1ccc(N2C(=O)[C@@H]3C(C(=O)c4ccc5ccccc5n4)=NN[C@@H]3C2=O)cc1` the Potency was inconclusive: 25.1 µM [inhibitor, single point]. For `NC(=O)c1cc(Br)cc(C2CCCCC2)c1O`, the Potency was inconclusive: 1.41 µM [inhibitor, single point]. `CC1CCN(S(=O)(=O)c2cc3c4c(c2)C(C)C(=O)N4CCC3)CC1` (stereo unspecified) was tested, and the Potency was “inactive”. For `O=C(CC1(O)C(=O)Nc2ccccc21)c1cccc(-n2cccc2)c1` (stereo unspecified), the Potency was inconclusive: 50.1 µM [inhibitor, partial curve, poor fit]. For `Cc1cc(NC(=O)CSc2nc(=O)n(CCCN(C)C)c3c2CCCC3)no1`, the Potency was inconclusive: 79.4 µM [inhibitor, partial curve, poor fit]. With `N#CCCN1CCN(C(=S)c2ccc(-c3cccc(Cl)c3)o2)CC1` the Potency was active: 8.91 µM. For `Cc1ccnc(NC(c2ccncc2)c2c(C)[nH]c3ccccc23)c1` (stereo unspecified), the Potency was active: 10 µM. `CCn1c2ccccc2c2cc(NC(=O)COC(=O)c3ccccc3Br)ccc21` was tested, and the Potency was inconclusive: 28.2 µM [inhibitor, single point]. With `CC(=O)Nc1sc2c(c1C(c1cccs1)N1CCOCC1)CCCC2` (stereo unspecified) the Potency was inconclusive: 89.1 µM [inhibitor, single point]. For `COc1ccc(N/C(=C/[N+](=O)[O-])SC)cc1`, the Potency was inconclusive: 50.1 µM [inhibitor, single point]. `COc1ccccc1NC(=O)NC1(C(=O)N2CCC(C)CC2)CCCCC1` was tested, and the “activity, negative = inhibition” value was inactive: -6.93% [at 102 µM]. With `CCN(CC)c1ccc(NC(=O)CN2CCN(c3ccccc3OC)CC2)cc1` the Potency was inconclusive: 3.55 µM [inhibitor, partial curve]. For `Cc1cc(C)cc(NC(=O)CSc2ccc(-c3ccco3)nn2)c1`, the Potency was active: 25.1 µM. For `C/C(=N\N=C1\NC(=O)C(Cc2ccccc2)S1)c1ccccc1` (stereo unspecified), the Potency was inconclusive: 28.2 µM [inhibitor, full curve]. In the case of `COc1ccc(N2CCN(C(c3nnnn3CCc3ccccc3)C(C)C)CC2)cc1` (stereo unspecified), the Potency is reported as inconclusive: 39.8 µM [inhibitor, full curve, poor fit]. With `Cc1ccc(C(O)P(=O)(OCCC(C)C)c2ccc(N(C)C)cc2)cc1` (stereo unspecified) the activity, negative = inhibition was inactive: 7.06% [at 2.33 µM]. `Cc1cc(=O)[nH]c2ccccc12` was tested, and the “activity, negative = inhibition” value was inactive: -11.7%. With `CCC(=O)N1CCc2cc(S(=O)(=O)NCCC(=O)Nc3cc(C)cc(C)c3)ccc21` the “activity, negative = inhibition” value was inactive: -17.5%. For `CCOC(=O)c1sc(NC(C)=O)nc1C`, the Potency was inconclusive: 7.94 µM [inhibitor, single point]. In the case of `O=C(O)C1CCN(S(=O)(=O)/C=C/c2ccccc2)CC1`, the “activity, negative = inhibition” value is reported as inactive: 24.2%. `CCN(CC)Cc1cc(C(C)=O)ccc1OCC(C)C` was tested, and the Potency was inconclusive: 63.1 µM [inhibitor, partial curve, poor fit]. With `Cn1c(-c2ccc3c(c2)OCO3)cnc1NCc1ccccc1` the Potency was active: 25.1 µM. With `COc1ccc(OC)c(-c2nnc(-c3ccc(C)o3)o2)c1` the activity, negative = inhibition was inconclusive: -95.1% [inhibitor]. With `CCN(CC)C(=O)Cn1c(=O)c2ccccc2n2c(=S)sc(-c3cccc(C)c3)c12` the Potency was inconclusive: 79.4 µM [inhibitor, single point]. `CCN(CC)CCNc1ccnc2cc(Cl)ccc12` was tested, and the Potency was inconclusive: 20 µM [inhibitor, single point]. In the case of `COc1cc2c(cc1OC)C(c1ccc(-c3cc(Cl)ccc3Cl)o1)=NCC2`, the Potency is reported as inconclusive: 39.8 µM [inhibitor, single point]. For `COc1ccc(CNCc2ccc3c(c2)OCO3)cc1Br`, the Potency was inconclusive: 89.1 µM [inhibitor, single point]. `COc1ccc(-c2cn3cccnc3n2)cc1NC(=O)Nc1cc(C)ccc1C` was tested, and the Potency was inconclusive: 31.6 µM [inhibitor, single point]. With `O=[N+]([O-])c1ccccc1Nc1c2ccccc2nc2ccccc12` the “activity, negative = inhibition” value was inactive: 8.76% [at 102 µM]. In the case of `COC(=O)c1cc(CSc2nc3ccc(C)cc3[nH]2)oc1C`, the Potency is reported as inconclusive: 89.1 µM [inhibitor, single point]. For `Cc1ccccc1S(=O)(=O)Nc1nc2ccccc2nc1Cl`, the Potency was inconclusive: 56.2 µM [inhibitor, partial curve, poor fit]. For `NC(C(=O)O)c1ccc(P(=O)(O)O)cc1` (stereo unspecified), the “activity, negative = inhibition” value was inactive: 20.5%. `CCOc1ccccc1CN1CCc2nc(N3CCN(C)CC3)ncc2C1` was tested, and the activity, negative = inhibition was inactive: -2.59% [at 12.7 µM]. `O=[N+]([O-])c1ccc(/C=C2\CCC(C3=CCCC3)=C2N2CCOCC2)cc1` was tested, and the Potency was inconclusive: 8.91 µM [inhibitor, single point]. With `CCOc1cc(NC(=O)c2cccs2)c(OCC)cc1NC(=O)c1cccnc1` the Potency was inconclusive: 35.5 µM [inhibitor, partial curve, poor fit]. With `CCN(CC(=O)Nc1sc2c(c1C#N)CCCC2)Cc1nc2ccccc2c(=O)[nH]1` the “activity, negative = inhibition” value was inactive: -4.81% [at 102 µM]. In the case of `Cc1noc(C)c1COC(=O)c1ccc(S(=O)(=O)NCc2ccco2)cc1`, the Potency is reported as inconclusive: 89.1 µM [inhibitor, single point]. `CCc1oc(C(=O)O)cc1COC` was tested, and the Potency was active: 44.7 µM. `CCOCCCNc1nc2c(S(=O)(=O)c3ccc(CC)cc3)nnn2c2ccc(Cl)cc12` was tested, and the “activity, negative = inhibition” value was inactive: 0.625%. With `CC[C@@H]1C(c2cccc(C)c2)=NN(c2ccc(Br)cc2)[C@H]1C(=O)N1CCOC1=O` the “activity, negative = inhibition” value was inactive: 113%. For `Cn1c(SCc2c(F)cccc2Cl)nc2c(c1=O)SCC2`, the “activity, negative = inhibition” value was inactive: -25.6%. In the case of `COc1ccc(CN(C(=O)c2ccco2)c2ccc(Br)cc2)cc1OC`, the Potency is reported as inconclusive: 79.4 µM [inhibitor, single point]. For `O=C(Nc1ccc(C(=O)N2CCN(c3ccccc3F)CC2)cc1)c1nsc2ccccc12`, the “activity, negative = inhibition” value was inactive: 5.06%. For `Cc1cc(Cl)ccc1OC(C)C(=O)Nc1ccc(S(=O)(=O)Nc2cnc3ccccc3n2)cc1` (stereo unspecified), the Potency was inconclusive: 35.5 µM [inhibitor, single point]. For `Cc1ccc(N(C(=O)c2csnn2)C(C(=O)NC(C)(C)C)c2cccs2)cc1` (stereo unspecified), the activity, negative = inhibition was inactive: 9.63% [at 0.501 µM]. With `CCSc1ccccc1C(=O)Nc1cccc(OC)c1` the Potency was inconclusive: 2.51 µM [inhibitor, partial curve, poor fit]. `Cc1ccc(S(=O)(=O)n2c(N)nc3ccccc32)cc1` was tested, and the Potency was active: 50.1 µM. In the case of `CCC(CC)C(=O)Nc1c(C)n(C)n(-c2ccccc2)c1=O`, the “activity, negative = inhibition” value is reported as inactive: -4.47% [at 102 µM]. In the case of `COC(=O)c1ccccc1NC(=O)CSc1nnc(Cc2ccc(Cl)cc2)o1`, the Potency is reported as inconclusive: 6.31 µM [inhibitor, single point]. With `CC(CC(=O)Nc1cccnc1)c1ccccc1` (stereo unspecified) the “activity, negative = inhibition” value was inactive: 4.17% [at 102 µM]. For `C=CCn1c(CSc2nc3ccccc3s2)nnc1SCC(=O)NCc1cccnc1`, the Potency was inconclusive: 28.2 µM [inhibitor, single point]. With `O=C(NCCCNC1CCCCC1)c1ccc(/C=N/O)nc1` the Potency was inconclusive: 3.55 µM [inhibitor, single point]. `COc1ccc(COC(=O)C2=C(C)NC(=O)CC2c2cccc(Cl)c2Cl)cc1` (stereo unspecified) was tested, and the “activity, negative = inhibition” value was inactive: 9.64%. In the case of `COc1ccccc1NC1=C(N2CCCCC2)C(=O)c2ccccc2C1=O`, the Potency is reported as active: 6.31 µM. `CCN(CC)C(=O)c1sc(NC(=O)c2ccc3c(c2)OCO3)c(C#N)c1C` was tested, and the Potency was inconclusive: 89.1 µM [inhibitor, single point]. In the case of `COc1ccc([N+](=O)[O-])cc1/C=N/Nc1nc(N2CCCCC2)nc(N2CCCCC2)n1`, the Potency is reported as inconclusive: 89.1 µM [inhibitor, partial curve, poor fit]. For `C=CCn1c(O)c(/C=C2\C=NN=C2c2ccccc2)sc1=S`, the Potency was inconclusive: 3.55 µM [inhibitor, full curve]. For `O=C(COC(=O)c1cc(Br)ccc1O)Nc1cc(S(=O)(=O)N2CCCC2)ccc1Cl`, the “activity, negative = inhibition” value was inactive: 14.2% [at 102 µM]. In the case of `O=S(=O)(Nc1nc2ccccc2nc1N1CCc2ccccc2C1)c1ccc(Cl)cc1`, the Potency is reported as inconclusive: 39.8 µM [inhibitor, single point]. For `CC(=O)N1c2ccc3ccccc3c2C(C)CC12CCCCC2` (stereo unspecified), the “activity, negative = inhibition” value was inactive: 24.2% [at 102 µM]. For `c1ccc(-n2nnnc2SCc2cn3ccccc3n2)cc1`, the Potency was inconclusive: 1.26 µM [inhibitor, partial curve, poor fit].
